Experimental data as given in PubChem BioAssay AID493208 (National Center for Advancing Translational Sciences (NCATS), 2011).
Hit rate of the full screen: of about 44,000 compounds, about 340 (0.77%) were called active. Roughly 5% stayed inconclusive and do not appear here. The call rests on the fitted dose curve; in most records, active means well fitted inhibition curve with a large enough effect; inconclusive means small, poorly fitted or top-dose-only effect; inactive means flat fitted curve, though single readings scatter. The list shows a part of the results.

Assay: Acumen qHTS Assay for Inhibitors of the mTORC1 Signaling Pathway in MEF (Tsc2-/-, p53-/-) Cells: Sytravon;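 further: plate controls were DMSO for no effect and rapamycin for full effect; nearly all actives have a fitted effect of over 50% in size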
Details: phospho-rpS6 immunofluorescence/PI, 24 h; series mostly up to 38.3 µM; activity change, negative = inhibition: at the top concentration
Outline: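 Cell-based qHTS: Tsc2-/- p53-/- MEF, 24 h cpd, 37 °C; fix/perm, anti-phospho-S6 Alexa-488 + PI; Acumen 488 nm scan; pS6/PI ratio, % positive cells; rapamycin 7.5 nM = inhibition ref; PI count = viability.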

Activity change, negative = inhibition, inactive:
Cc1ccccc1Cn1c(SCc2ccc(C(=O)NC(C)c3ccccc3)cc2)nc2ccncc21 (configuration not stated) 0.527%
O=C(NCCc1cccs1)c1ccc(Cn2c(SCc3ccc(F)cc3)nc3cccnc32)cc1 -1.37%
Fc1ccc(NCc2cccn2-c2nnc(N3CCOCC3)s2)cc1 -0.928%
CC1CCN(c2ncnc3c2cnn3-c2ccc(F)cc2)CC1 9.09%
CCc1ccc(-n2c(=O)c3c4c(sc3n(CC(=O)NCCCOC)c2=O)CCCC4)cc1 -12.3%
COc1cccc(NC(=O)c2sc3nc(C)c(C(=O)Nc4ccc(C)cc4C)c(-c4ccccc4Cl)c3c2N)c1 -14.8%
CCc1ccc(-c2nc(CN3CCC(C(=O)NCCc4ccc(Cl)cc4)CC3)c(C)o2)cc1 -3.71%
Cc1ccc(CCNC(=O)c2ccc(NC(=O)N3CC(C)Sc4ccccc43)cc2)cc1 (configuration not stated) -3%
COC(=O)C1=C(c2ccccc2)c2ccccc2S(=O)(=O)N1CC(=O)Nc1cccc(C(C)=O)c1 -15.8%
CC(CNC(=O)CN1C(=O)COc2ccc(S(=O)(=O)N3CCCCC3)cc21)c1ccccc1 (configuration not stated) -0.983%
COc1ccc2c(c1)c1c(c(=O)n(Cc3ccccc3)c(=O)n1Cc1ccc(C)cc1)n2C -2.93%
Cc1ccccc1C(=O)Nc1ccc(C(=O)OCc2cc(=O)n3nc(C4CC4)sc3n2)cc1 0%
O=C(Nc1ccc(Cl)cc1)C1CCN(S(=O)(=O)c2ccc(Br)s2)CC1 -4.55%
CC1CN(C(=O)Nc2ccc(C(=O)NCCc3ccccc3Cl)cc2)c2ccccc2S1 (configuration not stated) 0.486%
CCOc1ccc(NC(=O)CC2C(=O)N(c3cccc(C)c3)C(=O)N2Cc2ccco2)cc1 (configuration not stated) -5.25%
COc1ccc(-c2cc(C(F)(F)F)n3nc(C(=O)Nc4sc5c(c4C#N)CCC(C)C5)cc3n2)cc1OC (configuration not stated) -25.5%
CCOC(=O)C1CCN(C(=O)c2cc3ccc4ccc(C)[nH]c4c3n2)CC1 3.49%
CCC(C)NC(=O)c1[nH]c2cc(OC)ccc2c1Sc1ccc(C)cc1 (configuration not stated) 1.33%
CCOC(=O)c1cccc(NC(=O)c2cnn(-c3ccccc3)c2-n2cccc2)c1 -5.21%
O=C(CSCc1cc(=O)c2ccccc2[nH]1)Nc1cccc(C(F)(F)F)c1 0.519%
CC(=O)c1ccc(N2CCN(S(=O)(=O)c3ccc4[nH]c5c(c4c3)CCCCC5)CC2)cc1 -11.1%
CC(=O)N1c2ccccc2C(=O)C1N1CCN(c2cc(Cl)ccc2C)CC1 (configuration not stated) -1.98%
CCC1CN(C(=O)Nc2ccccc2C(F)(F)F)c2ccccc2S1 (configuration not stated) -11.3%
CCC1CN(C(=O)N2CCC(C(=O)N(C)Cc3ccccc3)CC2)c2ccccc2O1 (configuration not stated) 4.67%
Cc1ccc(CNC(=O)c2cc(S(=O)(=O)N3CCCCC3)cn2C)cc1 0.0286%
Cc1ccc2nc(CN3CCN(C(=O)Nc4cccc(C)c4C)CC3)oc2c1 19%
COc1ccc(NC(=O)CN2C(=O)CC(c3ccco3)Sc3ccccc32)cc1OC (configuration not stated) 2.66%
COC(=O)c1scc(-c2ccc(C)cc2)c1S(=O)(=O)Nc1c(C)cc(C)cc1C -0.433%
Cc1nc2c(-c3ccccc3)c(C)[nH]n2c(=O)c1Cc1ccc(C(C)C)cc1 4.65%
CCS(=O)(=O)c1ncc(N(Cc2cccc(F)c2)Cc2ccco2)c(C(=O)Nc2ccccc2Cl)n1 -9.33%
CCOc1ccccc1NC(=O)CCNS(=O)(=O)c1ccc2c(c1)CCN2C(=O)C1CC1 1.66%
CCCCS(=O)CC(O)CSc1nc(-c2ccc(OC)cc2)cc(-c2ccccc2)c1C#N (configuration not stated) 1.75%
Cc1ccc(/C=C/c2onc(C)c2S(=O)(=O)N2CCC(C(=O)NCc3ccc(N(C)C)cc3)CC2)cc1 0.355%
COc1ccc(NC(=O)CN(c2ccc(C)cc2)S(=O)(=O)c2cccs2)cc1OC -2.88%
CCC(Sc1nnc(-c2ccc(OC)cc2)c(-c2ccc(OC)cc2)n1)C(=O)Nc1cccc(OC)c1 (configuration not stated) 8.43%
Fc1ccccc1N1CCN(c2c3c(nc4nncn24)CCC3)CC1 1.85%
CCCCN(C)C(=O)Cn1ncc2c([nH]c3ccc(C)cc32)c1=O 4.66%
Cc1ccc(OCCCC(=O)Nc2sc3c(c2C(N)=O)CCCC3)cc1 9.69%
Cn1ncc2c(N3CCN(c4ccccc4Cl)CC3)ncnc21 -7.69%
COc1ccccc1NC(=O)c1sc2nc(-c3cc4ccccc4oc3=O)[nH]c(=O)c2c1C -17.1%
Cc1cc(C)cc(NC(=O)c2cccc(N3CCCS3(=O)=O)c2)c1 -6.19%
Cc1cccc(C(=O)Nc2nnc(SCc3cc(=O)n4cccc(C)c4n3)s2)c1 -4.7%
O=C(Cc1ccc(Cl)cc1)NCC(c1cccs1)S(=O)(=O)c1ccc(Cl)cc1 (configuration not stated) -1.44%
O=C(CSc1nnc(-c2ccccc2F)o1)N1CCc2ccccc21 -9.75%
COc1ccc(C(=O)N/C(=C\c2cn(S(=O)(=O)N(C)C)c3ccccc23)C(=O)NCCCn2ccnc2)cc1 0.357%
Cc1cccc(NC(=O)c2c(NC(=O)c3ccco3)sc3c2CCC(C(C)(C)C)C3)c1 (configuration not stated) -3.18%
CN(Cc1ccccc1)C(=O)C1CCN(Cc2cc3ccccc3n2Cc2ccccc2)CC1 -13.2%
COc1cc(OC)cc(C(=O)Nc2ccc(S(=O)(=O)Nc3onc(C)c3C)cc2)c1 3.27%
Cc1ccc(-n2c3c(cc(-c4nc(-c5ccc(Cl)cc5)cs4)c2=O)C(=O)CC(C)(C)C3)cc1 -20.6%
O=C(Cn1nc(C(F)(F)F)c2c1CCCC2)Nc1ccc(Cl)cc1 -7.41%
COc1cccc(CNC(=O)CN2C(=O)CCn3nc(-c4cn(C)c5ccccc45)cc32)c1OC -7.76%
CCc1ccc(N2C(=O)CSC23C(=O)N(Cc2cccc(F)c2)c2ccccc23)cc1 (configuration not stated) -0.555%
CCOC(=O)c1cccc(NC(=O)c2cc(-c3ccc(Cl)s3)nc3ccccc23)c1 -1.3%
O=C(NCCc1ccccc1)c1ccc(CSc2nc3ccncc3n2Cc2ccccc2)cc1 -6.38%
COc1ccc(NC(=O)Cn2ncc3c([nH]c4ccccc43)c2=O)cc1Cl -2.53%
CCN(CC)CCCNC(=O)c1cn(C)c2ccc(S(=O)(=O)N3CCOCC3)cc2c1=O -2.36%
Cc1ccc(NC(=O)CSc2nc(C)cc(C)c2C(=O)Nc2cccc(C)c2)cc1 -0.259%
CCC(C(=O)NCc1ccccc1)n1ncn2c(cc3occc32)c1=O (configuration not stated) -8.7%
Cc1cccc(C(=O)Nc2cccc(C(=O)OCc3cc(=O)n4ccsc4n3)c2)c1 1.95%
CCOC(=O)c1ccc2ncc(C(=O)OCC)c(Nc3ccc(C)c(Br)c3)c2c1 -11.1%
COc1ccc(Br)cc1CNC(=O)CN1C(=O)CSc2ccc(S(=O)(=O)N3CCOCC3)cc21 2.99%
Cc1ccc(NC(=O)c2cc3c(=O)n(Cc4cccnc4)ccc3nc2C)cc1F -8.83%
COc1ccc(OC(C)C(=O)NCc2nc(-c3ccc(Cl)cc3)no2)cc1 (configuration not stated) -27.6%
COc1ccc(NC(=O)CNS(=O)(=O)c2cccs2)c(OC)c1 -8.26%
COc1ccccc1NC(=O)C1=C(C)Nc2ncnn2C1c1ccccn1 (configuration not stated) 5.32%
COc1ccc(OC)c(CNC(=O)c2cccc(NC(=O)N3CCSc4ncccc43)c2)c1 -11.1%
CC(C)Sc1ncc(Cl)c(C(=O)Nc2ccc(S(=O)(=O)N3CCCCC3C)cc2)n1 (configuration not stated) -0.949%
O=c1c2oc3ccccc3c2n(Cc2cccc(C(F)(F)F)c2)c(=O)n1Cc1ccc2c(c1)OCO2 -4.48%
CCOc1ccccc1N(C)C(=O)NCc1noc2ccccc12 -15.4%
CCOc1ccccc1NS(=O)(=O)c1ccc2oc(=O)c3ncn(C)c3c2c1 -1.33%
Cc1ccc(-n2nc(C)c3nc(CCC(=O)Nc4ccc(F)cc4)c(=O)n(C)c32)cc1 12%
CCn1cc(C(=O)NC(C)c2ccccc2)c(=O)c2cc(S(=O)(=O)N3CCc4ccccc4C3)ccc21 (configuration not stated) 10.9%
Cc1ccc(NC(=O)Cn2cc(S(=O)(=O)N3CCCC3)c(S(=O)(=O)N3CCCC3)c2)c(C)c1 -1.29%
O=C(NCCc1ccc(Cl)cc1)c1cccn1-c1nnc(N2CCCC2)s1 7.64%
COc1ccc(C(=O)c2cn(CC(=O)Nc3ccc4c(c3)OCO4)c3ccc(OC)cc3c2=O)cc1 -6.08%
CCCn1cc(S(=O)(=O)c2ccccc2)c(=O)c2cc(F)c(N3CCCC3)cc21 -2.45%
COc1ccc(C(=O)N2CCC(C(=O)Nc3ccccc3Cl)CC2)cc1 -2.83%
CCc1ccccc1NC(=O)c1cc(S(=O)(=O)NC2CCCC2)ccc1F 5.28%
CCCn1ccc2c(OCC(=O)Nc3ccc(F)cc3F)cccc2c1=O 4.45%
Cc1cccc(OCC(=O)Nc2ccc3c(c2)N(C)C(=O)c2ccccc2S3)c1 -12.8%
COc1ccc(-n2nc(C(=O)N3CCN(c4cccc(C)c4)C(C)C3)c3c4ccccc4n(C)c3c2=O)cc1 (configuration not stated) -1.14%
Cc1ccc(C(=O)N/C(=C\c2cn(S(=O)(=O)N(C)C)c3ccccc23)C(=O)NCCCn2ccnc2)cc1 -0.675%
COc1ccc(CN2CCCN(CC(=O)Nc3ccc4c(c3)OCCO4)S2(=O)=O)cc1 0%
Cc1ccc(C(=O)N2CCC(C(N)=O)CC2)cc1NC(=O)c1nsc2ccccc12 5.97%
COc1ccccc1CNC(=O)CCCn1c(=O)c2ccccc2n(Cc2ccc(C)cc2)c1=O 0.251%
COc1ccc(N(CC(=O)NCCc2ccc(Cl)cc2)S(=O)(=O)c2c(C)nn(C)c2C)cc1 -13.3%
CCOC(=O)C1CCN(C(=O)c2nn(-c3ccc(OC)cc3)c(=O)c3c2c2ccccc2n3C)CC1 0.0987%
Cc1ccc(-c2noc(-c3nnn(CC(=O)Nc4cc(Cl)ccc4C)c3N)n2)cc1 -0.266%
CC1CCN(S(=O)(=O)c2cc(C(=O)N3CCN(c4ccccc4F)CC3)n(C)c2)CC1 -0.821%
CCC1CN(C(=O)C2CCN(S(=O)(=O)c3c(C)noc3/C=C/c3ccccc3F)CC2)c2cc(C)ccc2O1 (configuration not stated) 0.666%
CCCCn1c(SCC(=O)NCc2ccc(C)cc2)nc2c(sc3ccccc32)c1=O -6.13%
COCCN1CCN(Cc2ccc(C(=O)NC(C)C)cc2)C(=O)C1=O 0%
